{"source": "paper PMC9911399", "about": "“Two distinct binding modes provide the RNA-binding protein RbFox with extraordinary sequence specificity”", "binders": {"B1": {"name": "GUGAAGC (DNA:RNA)", "RNA": "GGGAGACCGGAAUUCAGAUUGUCCGUGAAGCUUAAAUCCCGUCGUAGCCACCA", "DNA 1": "CAATCTGAATTCCGGTCTCCC", "DNA 2": "TGGTGGCTACGACGGGATT"}, "B2": {"name": "AUACACA (DNA:RNA)", "RNA": "B1 RNA with G25A, G27A, A28C, G30C, C31A", "DNA 1": "CAATCTGAATTCCGGTCTCCC", "DNA 2": "TGGTGGCTACGACGGGATT"}, "B3": {"name": "AGUGUCA (DNA:RNA)", "RNA": "GGGAGACCGGAAUUCAGAUUGUCCAGUGUCAUUAAAUCCCGUCGUAGCCACCA", "DNA 1": "CAATCTGAATTCCGGTCTCCC", "DNA 2": "TGGTGGCTACGACGGGATT"}, "B4": {"name": "GCCUACC (DNA:RNA)", "RNA": "B1 RNA with U26C, G27C, A28U, G30C", "DNA 1": "CAATCTGAATTCCGGTCTCCC", "DNA 2": "TGGTGGCTACGACGGGATT"}, "B5": {"name": "GGGCGUG (DNA:RNA)", "RNA": "B1 RNA with U26G, A28C, A29G, G30U, C31G", "DNA 1": "CAATCTGAATTCCGGTCTCCC", "DNA 2": "TGGTGGCTACGACGGGATT"}, "B6": {"name": "CUUUAUA (DNA:RNA)", "RNA": "B3 RNA with A25C, G26U, G28U, U29A, C30U", "DNA 1": "CAATCTGAATTCCGGTCTCCC", "DNA 2": "TGGTGGCTACGACGGGATT"}, "B7": {"name": "UCCACUC (DNA:RNA)", "RNA": "B1 RNA with G25U, U26C, G27C, A29C, G30U", "DNA 1": "CAATCTGAATTCCGGTCTCCC", "DNA 2": "TGGTGGCTACGACGGGATT"}, "B8": {"name": "UGCACUU (DNA:RNA)", "RNA": "B3 RNA with A25U, U27C, G28A, U29C, C30U, A31U", "DNA 1": "CAATCTGAATTCCGGTCTCCC", "DNA 2": "TGGTGGCTACGACGGGATT"}, "B9": {"name": "UAAUCAG (DNA:RNA)", "RNA": "GGGAGACCGGAAUUCAGAUUGUCCUAAUCAGUUAAAUCCCGUCGUAGCCACCA", "DNA 1": "CAATCTGAATTCCGGTCTCCC", "DNA 2": "TGGTGGCTACGACGGGATT"}, "B10": {"name": "CCAGGUU (DNA:RNA)", "RNA": "B3 RNA with A25C, G26C, U27A, U29G, C30U, A31U", "DNA 1": "CAATCTGAATTCCGGTCTCCC", "DNA 2": "TGGTGGCTACGACGGGATT"}, "B11": {"name": "CGCAGGA (DNA:RNA)", "RNA": "B3 RNA with A25C, U27C, G28A, U29G, C30G", "DNA 1": "CAATCTGAATTCCGGTCTCCC", "DNA 2": "TGGTGGCTACGACGGGATT"}, "B12": {"name": "UGCUGAA (DNA:RNA)", "RNA": "B9 RNA with A26G, A27C, C29G, G31A", "DNA 1": "CAATCTGAATTCCGGTCTCCC", "DNA 2": "TGGTGGCTACGACGGGATT"}, "B13": {"name": "CAGACUA (DNA:RNA)", "RNA": "B1 RNA with G25C, U26A, A29C, G30U, C31A", "DNA 1": "CAATCTGAATTCCGGTCTCCC", "DNA 2": "TGGTGGCTACGACGGGATT"}, "B14": {"name": "AUGCUCG (DNA:RNA)", "RNA": "B3 RNA with G26U, U27G, G28C, A31G", "DNA 1": "CAATCTGAATTCCGGTCTCCC", "DNA 2": "TGGTGGCTACGACGGGATT"}, "B15": {"name": "UCGUGGC (DNA:RNA)", "RNA": "B1 RNA with G25U, U26C, A28U, A29G", "DNA 1": "CAATCTGAATTCCGGTCTCCC", "DNA 2": "TGGTGGCTACGACGGGATT"}, "B16": {"name": "CUCUGAU (DNA:RNA)", "RNA": "B9 RNA with U25C, A26U, A27C, C29G, G31U", "DNA 1": "CAATCTGAATTCCGGTCTCCC", "DNA 2": "TGGTGGCTACGACGGGATT"}, "B17": {"name": "GGCCCGG (DNA:RNA)", "RNA": "B1 RNA with U26G, G27C, A28C, A29C, C31G", "DNA 1": "CAATCTGAATTCCGGTCTCCC", "DNA 2": "TGGTGGCTACGACGGGATT"}, "B18": {"name": "GAUGCGU (DNA:RNA)", "RNA": "B3 RNA with A25G, G26A, U29C, C30G, A31U", "DNA 1": "CAATCTGAATTCCGGTCTCCC", "DNA 2": "TGGTGGCTACGACGGGATT"}, "B19": {"name": "CGCGCGG (DNA:RNA)", "RNA": "B3 RNA with A25C, U27C, U29C, C30G, A31G", "DNA 1": "CAATCTGAATTCCGGTCTCCC", "DNA 2": "TGGTGGCTACGACGGGATT"}, "B20": {"name": "ACUUAUU (DNA:RNA)", "RNA": "B3 RNA with G26C, G28U, U29A, C30U, A31U", "DNA 1": "CAATCTGAATTCCGGTCTCCC", "DNA 2": "TGGTGGCTACGACGGGATT"}, "B21": {"name": "AGCAACC (DNA:RNA)", "RNA": "B3 RNA with U27C, G28A, U29A, A31C", "DNA 1": "CAATCTGAATTCCGGTCTCCC", "DNA 2": "TGGTGGCTACGACGGGATT"}, "B22": {"name": "AACCGUA (DNA:RNA)", "RNA": "B3 RNA with G26A, U27C, G28C, U29G, C30U", "DNA 1": "CAATCTGAATTCCGGTCTCCC", "DNA 2": "TGGTGGCTACGACGGGATT"}, "B23": {"name": "CGAUAUU (DNA:RNA)", "RNA": "B9 RNA with U25C, A26G, C29A, A30U, G31U", "DNA 1": "CAATCTGAATTCCGGTCTCCC", "DNA 2": "TGGTGGCTACGACGGGATT"}, "B24": {"name": "CUGUUAG (DNA:RNA)", "RNA": "B9 RNA with U25C, A26U, A27G, C29U", "DNA 1": "CAATCTGAATTCCGGTCTCCC", "DNA 2": "TGGTGGCTACGACGGGATT"}, "B25": {"name": "GGUCACG (DNA:RNA)", "RNA": "B3 RNA with A25G, G28C, U29A, A31G", "DNA 1": "CAATCTGAATTCCGGTCTCCC", "DNA 2": "TGGTGGCTACGACGGGATT"}, "B26": {"name": "AAUUAUU (DNA:RNA)", "RNA": "B3 RNA with G26A, G28U, U29A, C30U, A31U", "DNA 1": "CAATCTGAATTCCGGTCTCCC", "DNA 2": "TGGTGGCTACGACGGGATT"}, "B27": {"name": "GCUUGGG (DNA:RNA)", "RNA": "B1 RNA with U26C, G27U, A28U, A29G, C31G", "DNA 1": "CAATCTGAATTCCGGTCTCCC", "DNA 2": "TGGTGGCTACGACGGGATT"}, "B28": {"name": "UGUGCAC (DNA:RNA)", "RNA": "B3 RNA with A25U, U29C, C30A, A31C", "DNA 1": "CAATCTGAATTCCGGTCTCCC", "DNA 2": "TGGTGGCTACGACGGGATT"}, "B29": {"name": "UCCGGCG (DNA:RNA)", "RNA": "B3 RNA with A25U, G26C, U27C, U29G, A31G", "DNA 1": "CAATCTGAATTCCGGTCTCCC", "DNA 2": "TGGTGGCTACGACGGGATT"}, "B30": {"name": "CACCAAA (DNA:RNA)", "RNA": "B9 RNA with U25C, A27C, U28C, C29A, G31A", "DNA 1": "CAATCTGAATTCCGGTCTCCC", "DNA 2": "TGGTGGCTACGACGGGATT"}, "B31": {"name": "UUUAUCA (DNA:RNA)", "RNA": "B3 RNA with A25U, G26U, G28A", "DNA 1": "CAATCTGAATTCCGGTCTCCC", "DNA 2": "TGGTGGCTACGACGGGATT"}}, "note": "Residue numbers refer to the chain shown, from its start. This is one part of the list.", "data": [{"biological_target": "T1, RBFOX1 RRM RbFoxmut (Fox-RRM*) (Homo sapiens, UniProt Q9NWB1 109-208, R118D;E147R;N151S;E152T)", "T1 sequence": "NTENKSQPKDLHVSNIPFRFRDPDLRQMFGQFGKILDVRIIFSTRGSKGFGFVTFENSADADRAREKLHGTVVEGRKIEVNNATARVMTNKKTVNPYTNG", "assay": "EMSA; HiTS-Eq, 1 nM pool, 10 min; buffer printed only for the single-RNA assays: 10 mM Tris pH 7.5, 150 mM NaCl, 3.4 mM EDTA, 0.001% NP-40, 30 C", "conditions": "tags: His6 N-terminal (pET28a); label: 5' 32P", "procedure,_shortened": "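Purified RbFox RRM (wild type or mutant) was equilibrated for 10 min in 50 µL with 1 nM of a 5′-radiolabelled pool of RNA with 7 randomized nucleotides, its flanks annealed to DNA oligonucleotides, across increasing protein concentrations. Free RNA was separated by 8% native PAGE, excised, reverse-transcribed, PCR-barcoded and sequenced on an Illumina HiSeq 2500. Relative association constants came from read-count changes of each variant against the control reaction, normalised to the cognate motif.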", "values": [{"binder": "B1", "binding signal": "0.107 KA relative to UGCAUGU"}, {"binder": "B2", "binding signal": "0.0866 KA relative to UGCAUGU"}, {"binder": "B3", "binding signal": "0.143 KA relative to UGCAUGU"}, {"binder": "B4", "binding signal": "0.0624 KA relative to UGCAUGU"}, {"binder": "B5", "binding signal": "0.294 KA relative to UGCAUGU"}, {"binder": "B6", "binding signal": "0.132 KA relative to UGCAUGU"}, {"binder": "B7", "binding signal": "0.0752 KA relative to UGCAUGU"}, {"binder": "B8", "binding signal": "0.0762 KA relative to UGCAUGU"}, {"binder": "B9", "binding signal": "0.0626 KA relative to UGCAUGU"}, {"binder": "B10", "binding signal": "0.0813 KA relative to UGCAUGU"}, {"binder": "B11", "binding signal": "0.0809 KA relative to UGCAUGU"}, {"binder": "B12", "binding signal": "0.12 KA relative to UGCAUGU"}, {"binder": "B13", "binding signal": "0.063 KA relative to UGCAUGU"}, {"binder": "B14", "binding signal": "0.194 KA relative to UGCAUGU"}, {"binder": "B15", "binding signal": "0.116 KA relative to UGCAUGU"}, {"binder": "B16", "binding signal": "0.119 KA relative to UGCAUGU"}, {"binder": "B17", "binding signal": "0.0923 KA relative to UGCAUGU"}, {"binder": "B18", "binding signal": "0.11 KA relative to UGCAUGU"}, {"binder": "B19", "binding signal": "0.0961 KA relative to UGCAUGU"}, {"binder": "B20", "binding signal": "0.131 KA relative to UGCAUGU"}, {"binder": "B21", "binding signal": "0.051 KA relative to UGCAUGU"}, {"binder": "B22", "binding signal": "0.115 KA relative to UGCAUGU"}, {"binder": "B23", "binding signal": "0.101 KA relative to UGCAUGU"}, {"binder": "B24", "binding signal": "0.165 KA relative to UGCAUGU"}, {"binder": "B25", "binding signal": "0.119 KA relative to UGCAUGU"}, {"binder": "B26", "binding signal": "0.116 KA relative to UGCAUGU"}, {"binder": "B27", "binding signal": "0.111 KA relative to UGCAUGU"}, {"binder": "B28", "binding signal": "0.0994 KA relative to UGCAUGU"}, {"binder": "B29", "binding signal": "0.114 KA relative to UGCAUGU"}, {"binder": "B30", "binding signal": "0.104 KA relative to UGCAUGU"}, {"binder": "B31", "binding signal": "0.0949 KA relative to UGCAUGU"}]}]}
